About 14,000 (4.5%) of roughly 310,000 compounds showed an effect of 50% or more. Effects have a minus sign here. This is one part of the list.
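Further: peak tail current of the secondary pulse compared with the same well before compound.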

The target of this test is human ether-à-go-go-related gene (hERG) potassium channel (human, UniProt Q12809). Put plainly: primary screen, population patch clamp on CHO cells stably expressing hERG.
human ether-à-go-go-related gene (hERG) potassium channel, sequence (Q12809 whole entry, looked up): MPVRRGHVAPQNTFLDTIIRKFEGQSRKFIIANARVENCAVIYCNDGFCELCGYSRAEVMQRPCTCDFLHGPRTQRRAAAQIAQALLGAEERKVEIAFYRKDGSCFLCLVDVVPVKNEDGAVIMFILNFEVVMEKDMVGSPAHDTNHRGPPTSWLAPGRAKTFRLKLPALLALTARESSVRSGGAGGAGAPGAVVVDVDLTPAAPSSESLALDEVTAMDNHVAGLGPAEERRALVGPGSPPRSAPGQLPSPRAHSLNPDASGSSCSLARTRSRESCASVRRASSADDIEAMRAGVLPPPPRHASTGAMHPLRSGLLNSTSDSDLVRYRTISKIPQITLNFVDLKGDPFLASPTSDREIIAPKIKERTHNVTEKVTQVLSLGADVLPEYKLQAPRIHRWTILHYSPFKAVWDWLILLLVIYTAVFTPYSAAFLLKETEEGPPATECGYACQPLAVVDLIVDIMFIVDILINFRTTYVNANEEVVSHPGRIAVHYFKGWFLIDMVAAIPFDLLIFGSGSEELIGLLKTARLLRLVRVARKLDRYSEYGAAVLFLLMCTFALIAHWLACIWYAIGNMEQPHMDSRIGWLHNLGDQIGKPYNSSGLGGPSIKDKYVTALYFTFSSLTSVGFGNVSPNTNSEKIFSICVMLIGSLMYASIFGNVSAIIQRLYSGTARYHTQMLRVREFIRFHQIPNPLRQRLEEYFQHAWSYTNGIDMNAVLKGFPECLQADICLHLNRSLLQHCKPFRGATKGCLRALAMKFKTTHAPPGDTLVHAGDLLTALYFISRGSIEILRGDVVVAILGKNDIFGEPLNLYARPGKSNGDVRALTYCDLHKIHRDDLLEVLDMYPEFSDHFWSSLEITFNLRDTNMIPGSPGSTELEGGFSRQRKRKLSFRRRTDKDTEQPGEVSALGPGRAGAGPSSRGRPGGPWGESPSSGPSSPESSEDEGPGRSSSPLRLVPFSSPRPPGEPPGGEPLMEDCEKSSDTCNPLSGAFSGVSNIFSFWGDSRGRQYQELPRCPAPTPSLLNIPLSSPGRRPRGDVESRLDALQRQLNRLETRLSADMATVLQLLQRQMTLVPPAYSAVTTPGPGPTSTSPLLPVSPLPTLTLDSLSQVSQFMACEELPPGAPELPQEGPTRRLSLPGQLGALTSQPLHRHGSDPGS
For `O=C(c1c[nH]c2ccc(F)cc2c1=O)N1CCCCCC1`, the “hERG current change (%, negative = inhibition) at 10uM” value is 4.09%.
`O=C(O)Cc1ccc(NCc2ccccc2Cl)cc1`: the “hERG current change (%, negative = inhibition) at 10uM” value is -24.6%.
Consider `CN(C)c1ccc(S(=O)(=O)N2CCCCC2)cc1NC(=O)CN1C(=O)NC2(CCCC2)C1=O`, for which the “hERG current change (%, negative = inhibition) at 10uM” value is 8.25%.
With `Cc1ccc(C(=O)N/C(=C\c2cccs2)c2nc3ccccc3[nH]2)cc1` the figure was -15.5%.
For `Cc1cccc(C(=O)N[C@H](C(=O)OCC(=O)NC(=O)c2cccn2C)C(C)C)c1` the value was -7.08%; for `O=C(Nc1ccccc1)c1cc(S(=O)(=O)NCc2ccncc2)ccc1Cl`, -41.5%.
With `CCS(=O)(=O)N1CCC(C(=O)Oc2ccc(Cl)cc2)CC1` the figure was 15.8%; with `O=C(Cc1cccc2ccccc12)NCC1CCCO1` (stereo not drawn), -5.85%.
For `N#Cc1cccc(OCC(=O)NC(=O)NCc2ccccc2)c1`, the “hERG current change (%, negative = inhibition) at 10uM” value was -20.5%.
For `COc1ccc(Cl)cc1NS(=O)(=O)N1CCOCC1` the value was 6.86%; for `COc1ccc(CNCCc2c[nH]c3ccccc23)cc1OC.O=C(O)C(=O)O`, -28%; for `O=C(CCC(=O)Nc1ccccc1)NNC(=O)C(c1ccccc1)c1ccccc1`, -0.585%.
With `O=C(C1CCCCC1)N1CCN(c2ncccn2)CC1` the figure was -4.8%; with `COc1ccc(CCNC2CCC(c3ccccc3)CC2)cc1` (stereo not drawn), -70.8%; with `COCCN(CCOC)C(=O)C1CCN(c2ccc(S(=O)(=O)N3CCOCC3)cc2[N+](=O)[O-])CC1`, -35.5%.
For `Cc1nc2nc(SCC(=O)NCc3ccco3)nn2c(C)c1Cc1ccccc1` the value was -32%.
On to `Cc1cccc(-c2nc3ccccc3c(=O)[nH]2)c1`, for which the “hERG current change (%, negative = inhibition) at 10uM” value is 6.98%.
With `CCOc1ccc(CC(=O)C2=C(N3CCOCC3)CC(C)(C)CC2=O)cc1OCC` the figure was 9.02%; with `COc1cccc(N(C(=O)Cn2nnc(-c3cccs3)n2)C(C(=O)NC(C)C)c2ccc(C)o2)c1` (stereo not drawn), 6.36%; with `COCCNC(=O)CN(C)S(=O)(=O)c1ccc(Br)cc1`, 8.16%.
Take `C=CCn1c(O)c(C=NCCCn2ccnc2)c(=O)[nH]c1=O`: the “hERG current change (%, negative = inhibition) at 10uM” value is -6.01%.
`O=C(/C=C/Nc1ccccc1OC(F)(F)F)C(F)(F)F`: the “hERG current change (%, negative = inhibition) at 10uM” value came to 8.23%.
Turning to `COc1ccc(OC)c(S(=O)(=O)N2CCC(C(=O)N3CCCCCC3)CC2)c1`, the “hERG current change (%, negative = inhibition) at 10uM” value stood at 5.45%.
With `COc1ccc(NC(=O)N(CCCN(C)C)Cc2cc3cc(OC)ccc3[nH]c2=O)cc1` the figure was -38.5%.
With `COc1cccc(N2CCN(S(=O)(=O)c3cc4c(cc3C)N(C)CCO4)CC2)c1` the figure was -7.15%; with `COc1ccc(C(=O)Nc2cc(C(C)=O)c(C)oc2=O)cc1`, 20.9%.
With `COc1ccc(C(=O)n2nc(-c3ccco3)nc2N)cc1` the figure was -2.65%.
As to `CCOC(=O)c1ccc(NC(=O)c2c(Cl)cc(C)nc2C)cc1.Cl`, the “hERG current change (%, negative = inhibition) at 10uM” value was -5.79%.
With `Cc1c(/C=N/Nc2ccc(F)cc2)c(O)n(C)c(=O)c1C#N` the figure was 14.6%; with `COC(=O)c1cn(NC(=O)c2cccnc2)c(=O)c2ccccc12`, 17.2%; with `CN1/C(=C\C(=O)c2cccs2)C(C)(C)c2ccccc21`, -8.57%.
For `N=C1C(c2nc(-c3cccc([N+](=O)[O-])c3)cs2)=C(O)CN1NC(=O)c1ccco1` the value was 15.3%; for `CNc1nc(Cl)nc(Nc2ccccc2)n1`, 25.6%.
Regarding `CN(Cc1ccccn1)Cc1cn(Cc2ccccc2)nc1-c1ccc2c(c1)OCO2`, the “hERG current change (%, negative = inhibition) at 10uM” value was -20.6%.
With `CCCN1CCC(=O)N([C@H](CSc2ccc(OC)cc2)Cc2ccccc2)CC1` the figure was -70.5%; with `CCCCNC(=O)CCn1nc(-c2ccc(Cl)cc2)ccc1=O`, -23.4%.
Turning to `O=C(NC1CCCCC1)Oc1cccc2ccccc12`, the “hERG current change (%, negative = inhibition) at 10uM” value stood at 14.9%.
With `N/C(=N\OC(=O)c1ccc2c(c1)OCO2)c1cccc(Br)c1` the figure was 15.6%.
Turning to `O=C(NC1CCCCCCC1)c1cccnc1`, the “hERG current change (%, negative = inhibition) at 10uM” value is on record as 2.56%.
As for `CC1CCc2nn(CC(=O)NC3CCCC(C)C3C)cc2C1` (stereo not drawn), the “hERG current change (%, negative = inhibition) at 10uM” value is 0.882%.
As for `O=C(CSc1nc2ncc(Cl)cc2[nH]1)NCCc1ccc(F)cc1`, the “hERG current change (%, negative = inhibition) at 10uM” value is recorded as 5.69%.
With `CCOC(=O)c1cc(CC)sc1/N=C/C1C(=O)CCCC1=O` the figure was 10.9%.
For `O=C(O)c1cc(NC(=O)C2CCCO2)cc(NC(=O)C2CCCO2)c1` (stereo not drawn) the value was 4.52%; for `O=C(CC1C(=O)NCCN1C(=O)c1ccc([N+](=O)[O-])cc1)Nc1cccc(Cl)c1` (stereo not drawn), -40.4%.
For `COc1ccc(C2NC(=O)CS2)cc1` (stereo not drawn) the value was -13.2%; for `N#C/C(=C/c1ccco1)C(N)=S`, 14.7%.
For the compound `O=C(/C=C\NCC(=O)c1ccccc1)c1ccc2ccccc2c1`, the “hERG current change (%, negative = inhibition) at 10uM” value is -2.39%.
For `O=C1C(Cc2ccc(F)cc2)SC(=Nc2ccccc2)N1c1ccccc1` (stereo not drawn) the value was -0.735%; for `Oc1ccccc1C1=Nc2nc3ccccc3n2C(c2ccccc2)C1` (stereo not drawn), 1.84%.
With `O=C(O)CCNC(=O)OCC1c2ccccc2-c2ccccc21` the figure was -6.49%; with `COc1ccc(CNC(=O)CCNS(=O)(=O)c2ccc(Cl)cc2)cc1`, -15.3%; with `CC1=CC2=NC(=O)/C(=C\c3ccc(-c4cccc(Cl)c4)o3)C(=N)N2O1`, 1.57%.
For `Cc1cc(NC(=S)NC(=O)c2ccccc2)ccc1-c1cc2ccccc2oc1=O` the value was 7.22%.
Regarding `O=C(CSc1nnc(NC(=O)c2ccc(F)cc2F)s1)NC1CCCC1`, the “hERG current change (%, negative = inhibition) at 10uM” value is on record as 17.7%.
With `CN(CC(=O)Nc1ccc(F)cc1)C(=O)CCc1nc2sc3c(c2c(=O)[nH]1)CCCC3` the figure was -19.2%.
For `O=C(COC(=O)c1ccc(O)cc1)Nc1ncc(Cl)cc1Cl` the value was -4.31%; for `Cc1ccc(NC(=O)c2ccc3nccnc3c2)c(C)c1`, -2.58%.
